In PubChem BioAssay AID1458 (National Center for Advancing Translational Sciences (NCATS), 2008):
The campaign covered roughly 210,000 compounds. About 5,900 (2.8%) were called active. Inconclusive results, whose numbers are uncertain, are shown with a selection of clear calls. Calls come from the whole dose curve; as a rule, active = well fitted activation curve with a large enough effect; inconclusive = small, poorly fitted or top-dose-only effect; inactive = no such curve, though single readings can be large or run the other way. Where the call is inconclusive, the potency comes from a doubtful curve fit.

Test: qHTS Assay for Enhancers of SMN2 Splice Variant Expression; note: nearly all actives have a fitted effect of over 55% in size; for activity change, positive = activation: % of control where 0% means no effect
Conditions: HEK293 SMN2-luciferase splicing reporter, luminescence, 30-36 h; activity change, positive = activation: at 46.1 µM (top of the series)
Procedure, shortened: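 HEK293 cells carry an SMN2 […]–luciferase reporter in which exon 7 inclusion puts luciferase in frame. Cells were plated 10-12 h before compound addition, then incubated 30-36 h at 37C. ONE-Glo luminescence was read; sodium butyrate at 4.5 mM final served as control.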
Potency is the fitted concentration of half-maximal effect; tags give direction and shape of the fitted curve.

Row | Compound | activity change, positive = activation | Potency
1 | COc1ccc2c(c1)CN([C@H](C)[C@@H]1CC[C@@H]3[C@H]4CC[C@H]5C[C@@H](O)CC[C@@]5(C)[C@H]4CC[C@]31C)CO2 | inactive: -16% [at 9.22 µM] | 
2 | CCC(=O)NCCc1nc2ccccc2[nH]1 |  | inconclusive: 0.0071 µM [activator, full curve]
3 | CCCCCOC(=O)CSc1n[nH]c(=O)[nH]c1=O |  | inconclusive: 7.94 µM [activator, partial curve, poor fit]
4 | Oc1[nH]c2ccccc2c1/C=N/c1nccs1 |  | inconclusive: 0.794 µM [activator, full curve]
5 | CC(C)C(NC(=O)c1ccccc1F)C(=O)NCCc1ccccn1 (centres undefined) |  | inconclusive: 31.6 µM [activator, single point]
6 | CC(Cc1ccccc1)C(=O)NCc1ccccn1 (centres undefined) |  | inconclusive: 17.8 µM [activator, single point]
7 | CCc1cccc(C)c1NC(=O)c1cc(C)oc1C |  | inconclusive: 14.1 µM [activator, partial curve, poor fit]
8 | Cc1c(C2=CCN(S(=O)(=O)c3ccc(Cl)cc3)CC2)c2ccccc2n1CC(=O)N1CCCC1 | inactive: -3.76% | 
9 | O=c1/c(=C\c2ccc(F)cc2)sc2n1CCCN=2 |  | inconclusive: 25.1 µM [activator, single point]
10 | C=CCn1c(N)c(C(=O)NCCC2=CCCCC2)sc1=S |  | active: 12.6 µM
11 | Cc1ccc(CNC(=O)NCc2ccccc2)cc1 |  | inconclusive: 7.08 µM [activator, partial curve]
12 | O=C1CCc2cc(S(=O)(=O)NC(C(=O)Nc3ccc(F)cc3)c3ccccc3)ccc2N1 (centres undefined) | inactive: 16.5% | 
13 | CCCOc1ccc(C(=O)Nc2cc3nn(-c4ccc(CC)cc4)nc3cc2C)cc1 | inactive: 6.44% | 
14 | COc1ccc(C(=O)Nc2cccc3cccnc23)cc1OC | inactive: -13.6% | 
15 | O=C(N/N=C/c1ccc(Cl)cc1)c1sccc1OCc1ccc(F)cc1 |  | inconclusive: 0.0355 µM [activator, full curve, poor fit]
16 | OCc1cn(-c2ccccc2)nc1-c1cc2ccccc2o1 |  | active: 7.94 µM
17 | CC1(C)CC(=O)C2=C(C1)OC(N)=C(C#N)C2c1cn(-c2ccccc2)nc1-c1ccc(F)cc1 (centres undefined) | inconclusive: 30.8% [activator] | 
18 | CCc1ccc(-c2nn(Cc3ccccc3)cc2/C=C/C(=O)O)cc1 |  | inconclusive: 0.0141 µM [activator, full curve, poor fit]
19 | CN(C(=O)c1ccc2c(c1)OCO2)C1(C(=O)NC2CCCC2)CCCCC1 | inactive: 2.16% | 
20 | CCOc1ccc(S(=O)(=O)N2CCN(C(=O)c3sccc3C)CC2)cc1 | inactive: -17% | 
21 | COc1ccc(NC(=O)c2cc(=O)c3ccccc3o2)cn1 | inactive: -23.6% | 
22 | CCOC(=O)Cc1c(C)nc2c(-c3ccc(OC)c(OC)c3)c(C)nn2c1C | inactive: -0.645% | 
23 | CC(C)C[C@@H](CC(=O)N[C@@H](CCCN)CC(=O)N[C@@H]1CCNC[C@H]1C(=O)N[C@H](CC(=O)N[C@@H](CCC(=O)O)CC(=O)O)Cc1c[nH]c2ccccc12)NC(=O)[C@@H]1CCCC[C@H]1N | inactive: 6.7% | 
24 | Cc1ccc(NC(=S)c2nc3ccccc3s2)cc1 | inconclusive: 44.2% [activator] | 
25 | COc1ccc(CCN(C)C(=O)c2ccc(S(=O)(=O)NCc3ccco3)cc2)cc1OC |  | inconclusive: 5.62 µM [activator, single point]

Row | Compound | activity change, positive = activation | Potency
26 | CC(=O)N1CCc2c(sc3c2c(=O)n(-c2cc(Cl)ccc2C)c(=O)n3C)C1 | inactive: 2.58% | 
27 | Cc1ccc(Nc2nc(C)cc(C)n2)c(Br)c1 | inactive: 4.42% | 
28 | N#C/C(=C/c1ccccc1Cl)c1nc(-c2cc3ccccc3oc2=O)cs1 | inactive: -5.89% | 
29 | C[C@@H](CC(=O)O)[C@@H](N)C(=O)O | inactive: 14.4% | 
30 | C(=N\Nc1nc(N2CCCC2)nc(N2CCCC2)n1)/c1ccncc1 | inactive: -13.7% | 
31 | Cc1ccc(NC(=O)C2C(=O)N(C)c3ccccc32)cc1 (centres undefined) |  | inconclusive: 8.91 µM [activator, partial curve, poor fit]
32 | Cn1ncc(Br)c1C(=O)OCC(=O)Nc1nc(-c2ccccc2)cs1 |  | active: 14.1 µM
33 | C[C@H](NC(=O)Nc1cccc(C(F)(F)F)c1)C(=O)O |  | inconclusive: 5.62 µM [activator, single point]
34 | NS(=O)(=O)c1ccc(NS(=O)(=O)c2cccs2)cc1 |  | inconclusive: 0.02 µM [activator, full curve, poor fit]
35 | Cc1nc(N)sc1-c1csc(Nc2ccccc2)n1 |  | active: 11.2 µM
36 | O=C(Nc1ccccc1)Nc1cc([N+](=O)[O-])ccc1F | inactive: -7.7% | 
37 | COC(=O)[C@@]1(Cc2ccccc2)[C@H]2c3cc(C(=O)N4CCCC4)n(Cc4ccc(O)c(OC)c4)c3C[C@H]2CN1C(=O)c1ccccc1 | inactive: -27.4% | 
38 | FC(F)Sc1ccc(NC(=S)NC2CCCCC2)cc1 |  | inconclusive: 11.2 µM [activator, partial curve]
39 | COc1cccc([C@@H]2Oc3ccc(Br)cc3C(=O)[C@H]2OC(=O)N[C@H]2CCCc3ccccc32)c1 | inactive: 4.49% | 
40 | Cc1nc2ccc3[nH]snc3c2n1 |  | inconclusive: 7.94 µM [activator, partial curve, poor fit]
41 | CCCOCC1CC(CCc2nc(=S)[nH][nH]2)C(=O)O1 (centres undefined) |  | inconclusive: 0.794 µM [activator, full curve, poor fit]
42 | O=C(CCc1ccccc1)Nc1cccc([N+](=O)[O-])c1 | inactive: 9.39% | 
43 | CCOC(=O)N1N=C(c2ccc(C)cc2)CC1(O)C(F)(F)F (centres undefined) | inactive: 20.8% | 
44 | Cc1ccc(C)c(N2CCN(CC(=O)Nc3ccc([N+](=O)[O-])cc3C(=O)Nc3ccccc3F)CC2)c1 | inactive: -5.87% | 
45 | CN(C)c1ccc(C2=NOC(CN3C(=O)c4ccccc4S3(=O)=O)C2)cc1 (centres undefined) |  | active: 12.6 µM
46 | O=C(Nc1ccc2nc(-c3cccnc3)[nH]c2c1)C12CC3CC(CC(C3)C1)C2 | inactive: 13% | 
47 | CCOc1ccc(C(=O)c2oc3ccccc3c2NC(=O)c2cc(=O)c3ccc(C)cc3o2)cc1 |  | inconclusive: 10 µM [activator, partial curve]
48 | CN(C)c1ccc(NC(=O)c2ccc([N+](=O)[O-])cc2Cl)cc1 |  | active: 10 µM
49 | COc1ccc(NC(=O)C2CCN(c3ccc(Sc4ccc(C)cc4)nn3)CC2)cc1 | inactive: 0.32% | 
